Assay results from the supplement of paper PMC3334620.
In all, about 33,000 sequences were measured (“E-score (-0.5 to 0.5)”: median about -0.054, highest 2% from about 0.39 on). Some of the results follow.

Each sequence was assayed against Ylr278c (UniProt Q05854) (assay: PBM E-score (8-mer binding enrichment) (E-score (-0.5 to 0.5)); higher = stronger / more preferred TF binding; most listed sequences are background and not binding sites). Conditions: protein concentration: 200 nM; construct: GST-DNA-binding domain.
Outline: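 For each ungapped eight-base word taken together with its reverse complement, the Universal PBM Analysis Suite assigned an E-score. Binding data came from GST-tagged yeast transcription factors, applied at about 100-200 nM, on universal all-10-mer Agilent arrays made double-stranded by primer extension. Fluorescent anti-GST marked bound protein, and scans were normalised with masliner.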

Sequence	PBM E-score
CTTCAATC	-0.0498
CGGAGGGC	0.375
AACCTAGC	0.0403
CCGTTGGA	0.105
AGAGAGAG	-0.293
GATTGTCA	0.00867
ATAACCCA	-0.0649
TCCGACGA	0.397
CAATTCCC	0.19
CATTGCAC	-0.0913
TGCGTCAA	-0.0322
CACCCAAA	-0.0681
ACCAATAA	-0.0201
CTGCGTAA	-0.0237
CTTTTGCA	-0.155
CCATAGGA	-0.14
TCCAGGAA	-0.0456
AAATTCAG	-0.043
ATCCAGAG	-0.211
GTGCAAAA	-0.271
AGTCAGCG	0.0403
GAACCACC	0.058
TCCCCTAA	-0.0951
TCGCAAGA	-0.147
CTTGACGC	-0.0517

Sequence	PBM E-score
GTCGGAGA	0.444
ACTGCTGC	-0.051
ACTTGCGG	0.151
ACCAGCTG	-0.235
TACGTACA	-0.187
AAGTCAGG	0.0453
CATATCAA	-0.0107
GGCCCCAA	-0.0242
CGCTAGGC	-0.0311
AAGATAGA	-0.155
CAGGTATA	-0.0991
AGCCGAAT	0.286
AACGCTGG	-0.142
ACGTATTC	-0.0234
CCTTATCG	0.103
GCTTCGCC	-0.0684
AGGTACGC	0.0166
AGTAATGC	0.0484
AACCGAGA	0.105
CACGCGGG	0.0412
CGAGGCTC	-0.118
CTAGCGGA	0.255
GTAAACCA	0.166
ATTCGTAG	-0.112
CTCCCCAC	-0.021

Sequence	PBM E-score
ATTTTCAG	-0.0345
TCGACAAA	-0.0156
GCTAGCCC	-0.0364
ATCCTCTA	-0.258
GGTAAGAA	-0.0877
AACGTCGG	0.213
ATAGCTTA	-0.133
CATGATGC	-0.265
ATGGCTAG	-0.244
AGGAGACC	-0.145
CGTGTGCC	-0.126
GCAGCCCC	0.19
ATGGCGCG	0.103
CCGTGCGC	0.192
ACCTTACG	0.00341
GGATATTA	0.217
AGATGCAT	-0.158
CAACTCAG	-0.114
ATCCCCAT	0.00014
ATGTATGC	0.0115
CCGTACGC	0.192
CAAGGGAG	-0.0698
AAGCCGGT	0.333
GCGGGAGC	0.0811
TATTGTGA	-0.0942

Sequence	PBM E-score
AGCTTCGC	-0.251
CGTCCTAG	-0.0244
AAAGACTA	-0.0707
ATCTAATA	-0.146
CCCCATCA	-0.0787
CAGCTATC	-0.133
ACTAGACA	-0.0591
CGTAGATC	0.0972
AGAGGATA	-0.2
AGTGGTAC	-0.277
ATGATCCG	0.273
CCTGCCAG	-0.283
ACGTTCCG	0.289
GTTCCGGA	0.45
AAAACGAC	-0.245
ATGCAGCG	0.0411
AGAATAGG	-0.014
CCCCCCGC	-0.0604
GGCAGGCC	-0.0509
GCTGTGCA	-0.143
CAAAGGTG	-0.196
GGCCAGCA	0.0322
AATCCTAT	0.181
CCAGGTTC	-0.0589
CCATCAGC	-0.0147

Sequence	PBM E-score
CCCAATCC	-0.0104
GGAGACAA	0.196
CTTTCCTC	-0.15
GCGACCCA	0.0314
AGCTGTTG	-0.184
TCGAGTAA	-0.0996
ATGAGAAG	-0.236
AGGCGCCT	-0.177
ACGCGAGC	0.0976
GAGGTCCA	0.102
CAAACTGG	-0.192
ACGGGGAT	0.352
AACGAATA	-0.12
CACCCTCG	-0.00684
GCAGTAGC	-0.206
TTGGAAAA	-0.107
AGGCAATA	-0.201
CTTGGGTC	-0.171
AAGTCTGA	-0.409
CGAGGCCG	0.181
CTAGGGAC	-0.132
CAGCCATA	-0.212
GTGTCTCA	-0.152
CACAGAAC	-0.205
AGGAGAAG	-0.151

Sequence	PBM E-score
CTTGTCAA	0.0542
AATAATAT	0.23
AGCCATTC	-0.0143
AGTACGAC	-0.0403
CCACATGG	-0.18
CACGTGTA	-0.171
GACATCTA	-0.103
CGGCCCGA	0.25
CAACCCCC	-0.0384
CGAATAAG	-0.0916
CAACACGA	-0.207
CAAGTCCA	-0.118
AACGCAAG	-0.136
GTATCGTA	-0.187
ACCACGCC	-0.0137
GCCTACGA	-0.0756
TCGACCGA	0.136
AAGCAAGA	-0.16
ACCATTGA	-0.187
CTTATAGA	-0.142
TAAGTCAA	-0.285
GACAATCC	0.222
CAATTGGA	-0.178
ATGGTTTC	-0.0232
ACCGGGCG	0.121

Sequence	PBM E-score
ATGCTAGC	0.00697
AGTACTGA	-0.208
AATCAGTC	-0.0977
CAGACCGC	0.0478
ACTATCAG	-0.221
CACATTCA	-0.0945
AGATCTCG	0.012
CCAAAAAC	-0.00752
CGGTGGGA	0.124
CCCACAAC	-0.0392
ATAGGCCA	-0.061
CACTCGCA	-0.028
AAAACTCT	-0.16
ATTCACTG	-0.135
AGCGTGCA	0.0128
CTAATGGC	-0.107
CACCGGGG	0.345
GATACTGC	0.0575
AGACGTCC	-0.0515
ATCTGAAA	-0.039
CCCTGTAG	-0.0141
CGCTCGAA	-0.00193
GACAAGTA	0.113
ACAAACCG	0.156
AAACCACA	-0.0305

Sequence	PBM E-score
AGAGCTTC	-0.0549
AGGTCCTG	-0.173
ACGAAACG	-0.0505
CACTCAAC	-0.0951
GGTGGATA	-0.0278
TAGATAAA	-0.0204
GACTAACC	-0.027
GCTGCTTA	-0.0827
ACATAGTG	-0.00358
CCGTTTTA	0.22
CCAATTGG	-0.146
CTCCGCAA	0.409
AGAAGATA	0.138
CGTTTATA	0.0427
CCATTAAA	-0.0121
CACTGGCC	-0.0953
CCTCGAGG	-0.308
CTTCCGGC	0.371
CGATACTA	0.0974
AGCTTCGG	0.208
ATGATTGC	-0.0479
CACTATCG	0.104
TGATGGCA	-0.226
CATCTGAG	-0.0423
AGGGGTGC	-0.114

Sequence	PBM E-score
GATAAGCA	0.0369
ACGCAGCA	-0.159
AGGCACAC	-0.245
ACGTGACC	-0.116
GTGAGAGA	-0.175
GAATCGGC	0.33
CAAAGACC	-0.0204
CACCCATA	-0.153
GATGGACA	0.095
CCAGGTTA	-0.0329
GTTCAAAA	-0.0851
ACCCTGAG	-0.163
GACGCACA	0.146
ATAACTAG	-0.0232
CTATGATC	-0.0971
ACACCTCA	-0.225
ACCGGCTC	0.224
ACTCTCGG	0.263
TCCGAAAA	0.431
CCGTCATC	0.108
ATGATTCA	-0.149
AGATTAGA	-0.15
GAGCTGCA	0.0493
AAGTTCGT	-0.242
ATGACCTA	-0.143

Sequence	PBM E-score
CGCGCCCC	0.238
ACTAATCT	0.0155
AGGCTGGA	-0.228
CATCCGCC	0.309
ACACGATC	0.113
CTTTATAC	0.0278
ACAAGTAA	-0.22
CGCCAGAC	-0.153
CAGACTCC	0.124
GAATACCC	0.16
GCCGGAGA	0.459
CTGCGCTA	-0.088
CCATGACG	-0.0228
AGACGAGC	-0.173
GCCTCCAA	-0.134
CCGCATCG	0.232
TACGAGAA	0.00262
TCGCGAAA	0.191
TGAAATAA	-0.208
CTAAAATC	-0.0418
GCTTTTAA	0.0263
AACAGGAG	-0.137
CGCGTGAC	0.0234
GTGGTACA	-0.152
ACCGCTTG	-0.0343

Sequence	PBM E-score
CAACGGGA	0.148
CGACATCC	0.219
AAGGCAAA	-0.165
ACGTTCTA	-0.146
AGATTTCC	0.195
CTGGTCTA	-0.174
GCCGACTA	0.182
AGTAGAAT	-0.141
AGTCCGGA	0.476
AGTAGCGA	-0.17
CCAATAAA	-0.0291
GACCTGTA	-0.118
CTGGTTGA	-0.231
GGAAGCTA	-0.0188
CGGTATGC	0.107
ACGGCATG	0.0608
AGACACAG	-0.147
CACCACGA	-0.0786
CAGTATGA	-0.0866
AAAATAAT	0.0635
AAAAGAAC	-0.0704
CTCGATAA	0.0644
CCCCGTCG	0.194
AGACACAT	-0.188
GTAGCTGA	-0.217

Sequence	PBM E-score
GCACAGAC	0.105
CGAAGGTA	0.0631
ACATTTGG	0.143
ATAAAGGA	-0.182
ACCGTTCA	-0.054
ACGCAGAC	-0.204
ATGGGTGG	-0.0707
ATGTGACG	-0.238
GTGCAAGA	-0.081
ACTCACAT	-0.32
ATTATTCC	0.31
GCCCGCCC	0.303
GTTAACCA	-0.016
CACAGTAA	-0.0657
GAAAGTGC	0.0664
CTTTAAGA	0.151
GAGCGACA	-0.157
GCTGAGCA	-0.27
CGGAAGAG	0.221
GGATATGA	0.0976
ACAAACTC	0.155
AAAAATAC	0.0659
ACCTACGG	0.0706
CTCTCGAA	-0.33
GTGAACTA	-0.197

Sequence	PBM E-score
AAGTCGGA	0.328
AATCAGAT	-0.145
TGCCGCCA	0.117
GAAGGAAC	-0.0822
CGTATACG	0.234
AACTAGAC	-0.0709
AGCTCGAG	-0.0847
GAATTTCC	0.339
ATCAGGCC	-0.0624
GAGCGCAC	0.154
GTCATATA	-0.0339
CAGAGGCG	-0.164
AAGTGAAT	0.0432
CAGTCTTC	-0.211
TAGTTACA	-0.124
CACCCGGC	0.185
GTCCGGAC	0.455
CTCGCCAG	-0.203
GTTCCAAC	0.0696
ACTCGCTG	-0.0391
ACCTCAGG	-0.265
ACCAATCG	0.132
AGAATGAC	-0.134
CACTCGAA	-0.208
CTCTACCA	-0.123

Sequence	PBM E-score
AGTAGTGA	-0.125
AGAGGGAT	-0.341
AGGGAGGG	0.0694
GGCTATCA	-0.054
GCGGACAA	0.398
AAGAGTTG	-0.129
AGTATGCA	-0.151
GGCGGTGA	0.127
ACCTTTAC	-0.0851
CGCGCCCA	0.146
TAACTTAA	0.0318
TATCAACA	-0.194
ACGGCTAA	0.0492
GCAGTCGA	-0.0263
AACAGTGC	-0.078
CTTAATAA	0.141
GAGACAAA	-0.0652
CACGAGTG	-0.18
GAAATAAC	0.0248
